Measured values from the supplement of paper PMC11417369.
± gives the standard deviation of the averaged measurements. The list shows a part of the results.

The sequences below were run on PfAP2-I AP2 domain 3 (GST-tagged) (assay: gcPBM binding intensity (ln(normalized median fluorescence intensity)); higher = stronger DNA binding).
In short: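 The binding buffer was 1× PBS containing 1% milk, 0.2 mg/ml BSA, 0.5% salmon testes DNA and 0.03% Triton X-100. In it, GST-tagged P. falciparum DNA-binding domains expressed in E. coli were applied for 1 h to an Agilent 4 × 180k array of primer-extended double-stranded 36-bp intergenic genomic probes plus negative controls. Binding intensity, read with Alexa488 anti-GST antibody and a 488 nm scan, is the highest Masliner-normalised natural-log median intensity across replicate spots of either probe orientation.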

| Sequence | gcPBM binding intensity (ln) |
| --- | --- |
| GTTATACGCATATATACACACATATGTAAATATATA [CACACA_site3280] | 8 ± 0.33 |
| CTTTTTATTAAATATGCATGTGTATCAACAGTGAAT [TGCATGCA_site447] | 8.06 ± 0.88 |
| TAAAAAAAATAGCATACACACATATATACCTATATA [CACACA_site4535] | 7.33 ± 0.4 |
| ATCATAACACCTCCACACAAATAAATATAACATATA [XGTACX_negctrl_site269] | 8.09 ± 0.45 |
| ATGAGTGCACAAATATATATATATATATATATATAT [CACACA_negctrl_site404] | 11 ± 0.56 |
| TTCTATGAATTCATAGTGCAAATGAGTTATTTTTTC [GTGCAC_site9709] | 9.9 ± 0.33 |
| TTATTATTGTTATGTTGTACTTTTACAAACTTTTTG [XGTACX_site8797] | 7.87 ± 0.51 |
| AAGAAAATAGGGTTCATAGGATTATACTTTTGGAAT [TGCATGCA_negctrl_site80] | 7.59 ± 0.57 |
| AACGAGCAAGACGGGGTGCACACAAACTAATATGCC [GTGCAC_site9436] | 10.8 ± 0.37 |
| TAATAAAAGATATATACACACAAATAAATAAATAAA [CACACA_site7818] | 7.79 ± 0.95 |
| AAATATAAAAAAAATATATAATTTTTACATCGAATT [CACACA_negctrl_site544] | 7.27 ± 0.65 |
| ATAATATAAACATATTGTACACATATATTGCTATTT [XGTACX_site2799] | 7.83 ± 0.52 |
| AAAAAAAAATATATATATATATATATAAATAAATTT [CACACA_negctrl_site519] | 7.8 ± 0.57 |
| ATTTATTTATATAGAAGTACATATTTATTTATATAT [XGTACX_site6283] | 7.74 ± 0.26 |
| TAGAAATATAATTAATGTACATATGATATTATATAT [XGTACX_site923] | 7.67 ± 0.47 |
| ACATCAAGCAGACACACACACACACCCACCCACCGA [CACACA_site371] | 8.19 ± 0.74 |
| CTTTTTTAAATTATTGCACACAAAAATGAAAGGAAA [CACACA_site8412] | 10.2 ± 0.45 |
| ATATATTTATTAAGGTGTACAAAAATTATGTTGCAT [XGTACX_site7546] | 8.26 ± 0.35 |
| TATTTTATCTAAGGATGTACATTATTAAGAAAATGT [XGTACX_site6123] | 7.7 ± 0.45 |
| TTCATATAAATACATGCACACAAAAATATCAATACA [CACACA_site8753] | 8.69 ± 0.16 |
| ATATATTTTATTACCAGTACATATATTAAAATAATA [XGTACX_site8440] | 7.91 ± 0.4 |
| ATATAATGTGTAGGCCGTATTTACGTTTGGCAATCA [CACACA_negctrl_site1130] | 7.83 ± 0.53 |

| Sequence | gcPBM binding intensity (ln) |
| --- | --- |
| TATACAATATAAAATACACACGCACCCAAAAAAAAA [CACACA_site9174] | 8.73 ± 0.54 |
| ATTTTTTTATTTGATTGTACAATTTTCTTTCAAAAT [XGTACX_site2902] | 8.18 ± 0.54 |
| TATAATATAATATATATATATATATATATATAAGAA [CACACA_negctrl_site78] | 8.18 ± 0.39 |
| AGGGTTACAAGAGGAACACACAAAAAAATAAATAAA [CACACA_site1436] | 7.66 ± 0.78 |
| AAAAAAAATAGACACACACACATACACATAAATATA [CACACA_site7742] | 7.79 ± 0.43 |
| TTTATATTACAATAATATATTAAAAAATAAAATATA [TGCATGCA_negctrl_site18] | 7.39 ± 0.25 |
| ATTAAATCTATATATACACACATGTTTGGTATATTC [CACACA_site2657] | 7.73 ± 0.52 |
| TTTGTAATAAACTACTTTTTTTTTTTTTTTTTTTTT [CACACA_negctrl_site571] | 9.46 ± 0.26 |
| ATCTATTTCTATTGTTGTACTTATTTTTCATTGTTT [XGTACX_site6942] | 8.23 ± 0.47 |
| CGATTACTAATTTTTAGTACATATAATCAATATGTA [XGTACX_site7857] | 7.58 ± 0.32 |
| ATGTAGCCTTACGCTTGTACGAATATCTTAATTTTT [XGTACX_site4331] | 7.67 ± 0.67 |
| TAAGAAATAAATAGTACACACATAGACACCCACCCA [CACACA_site8429] | 8.65 ± 0.54 |
| AAACAAAATGGTAACACACACATATATAAATATGTA [CACACA_site6994] | 7.67 ± 0.43 |
| TATTATAAAGAAATTACACACATGCAATGAAAAAAA [CACACA_site1697] | 8.12 ± 1 |
| TCGTTTCCTTAAAATTGTACTTTTTTTTTTTTTTTT [XGTACX_site64] | 8.68 ± 0.31 |
| TAATGATAAATACATACACACAAAAAATAATATATA [CACACA_site2576] | 7.6 ± 0.49 |
| TGTTATTATTTGTACACACACATATAGATCCTTGTT [CACACA_site7667] | 8.21 ± 0.46 |
| AGAGTATATATATATGCATGCATATCTCATATTTAT [TGCATGCA_site509] | 7.77 ± 0.64 |
| CCTAAATATTTTTTATGTACATATTTATCTAAATTT [XGTACX_site6835] | 8.04 ± 0.31 |
| TGAGGAAACATGAGATGTACATATAAATTTTTTTTT [XGTACX_site2595] | 7.54 ± 0.43 |
| ATAGAAATTATAAATAGTACATAATAAAAATGAGCA [XGTACX_site822] | 7.89 ± 0.45 |
| ATTAAAGAGATATATACACACATTATGGGGGAATAA [CACACA_site6226] | 8.63 ± 0.28 |
